Data: the supplement of paper PMC3334620
The full ranking holds about 33,000 sequences; the median of “E-score (-0.5 to 0.5)” is about -0.035, and the highest 2% start at about 0.34. This is one part of the list.

The sequences below were run against T1, Mot3 (UniProt P54785) (assay: PBM E-score (8-mer binding enrichment) (E-score (-0.5 to 0.5)); higher = stronger / more preferred TF binding; most listed sequences are background and not binding sites). Conditions: protein concentration: 200 nM; construct: GST-full length.
T1 sequence: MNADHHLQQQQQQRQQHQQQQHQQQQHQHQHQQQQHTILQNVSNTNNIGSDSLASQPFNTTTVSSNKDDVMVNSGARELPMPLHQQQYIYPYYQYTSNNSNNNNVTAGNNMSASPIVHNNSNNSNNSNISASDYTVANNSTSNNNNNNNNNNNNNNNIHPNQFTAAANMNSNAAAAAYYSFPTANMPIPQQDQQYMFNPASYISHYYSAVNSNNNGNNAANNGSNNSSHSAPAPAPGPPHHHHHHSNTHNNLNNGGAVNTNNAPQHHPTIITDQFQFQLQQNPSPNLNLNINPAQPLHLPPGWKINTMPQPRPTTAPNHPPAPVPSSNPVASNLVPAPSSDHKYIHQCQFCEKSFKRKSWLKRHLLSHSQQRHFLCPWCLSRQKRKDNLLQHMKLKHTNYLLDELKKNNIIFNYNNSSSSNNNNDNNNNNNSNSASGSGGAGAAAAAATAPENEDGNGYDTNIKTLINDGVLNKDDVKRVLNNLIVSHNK
In short: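 Full-length yeast transcription factors or their DNA-binding domains, GST-tagged and expressed with PURExpress, were applied at about 100-200 nM to universal all-10-mer Agilent arrays. These arrays had been made double-stranded by primer extension on fresh or once-stripped slides. Detection used fluorescent anti-GST, normalisation used masliner, and E-scores for ungapped eight-base words pooled with reverse complements came from the Universal PBM Analysis Suite.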

Row | Sequence | PBM E-score
1 | ACGAGTCG | -0.132
2 | CGTAACAA | 0.152
3 | ATAAACTA | 0.0943
4 | TTGACCAA | 0.0363
5 | ACATGGCC | 0.315
6 | ACAACCTA | 0.142
7 | ACAACCGT | 0.157
8 | ACTCGAAA | 0.0722
9 | ACGTCCGC | -0.162
10 | TACATCTA | 0.227
11 | GAGAGACC | -0.23
12 | ACTACGGC | -0.303
13 | CGACGTTA | 0.0666
14 | ACTTGACA | 0.179
15 | CTCTTTAC | 0.177
16 | CAAGCGGC | -0.142
17 | GACGCGGC | -0.0795
18 | CCCGGTCA | -0.32
19 | GCACATGA | 0.0863
20 | AGAAAACC | -0.119
21 | GGAATACC | -0.0121
22 | GCTATTAA | 0.128
23 | GTTGTCAA | 0.157
24 | ATATTGAC | 0.0434
25 | AAGCCCCT | -0.195

Row | Sequence | PBM E-score
26 | ACCATTAG | -0.122
27 | GTAATACA | 0.329
28 | TCACTTAA | 0.0594
29 | GTTCTGGA | 0.0443
30 | ACCACCCA | -0.0591
31 | ATGCTCCG | -0.181
32 | AGACTTAC | 0.0486
33 | AATTTGGT | 0.1
34 | AAGAGTGC | 0.0716
35 | ACAAGTAT | 0.0968
36 | TCCCGAAA | -0.00587
37 | AGTGGTAT | -0.0695
38 | AATCGCCA | -0.145
39 | TCAAGGAA | 0.363
40 | AATGTTTC | -0.00335
41 | ACACAACA | 0.307
42 | ACAGGTAA | 0.39
43 | AATGGATG | 0.0536
44 | TACGAGTA | 0.0892
45 | GAGGCTGA | -0.187
46 | ATATCTCA | 0.00383
47 | GGCGAGTA | -0.0065
48 | GCCTAAGA | 0.138
49 | GAGTCCGA | -0.0983
50 | GTGACTAA | 0.0882

Row | Sequence | PBM E-score
51 | ACCCACGA | -0.123
52 | ATCCTTAA | 0.00499
53 | GGAGTCTA | -0.273
54 | TCTCCTCA | -0.15
55 | AAGTAAGC | 0.082
56 | CCGAGGTC | -0.308
57 | ATCACCCG | -0.262
58 | CGATTGGC | -0.206
59 | GATATAAC | 0.0808
60 | GTGGGGGA | -0.17
61 | CTTCCCAA | -0.0311
62 | ATTATTTG | 0.172
63 | ACCTTTCG | -0.117
64 | CTCCAGCC | -0.268
65 | CTCGTCCC | -0.222
66 | AGCTTACA | 0.162
67 | CTCGTAGA | -0.166
68 | CGATTCCG | -0.278
69 | GAAGTGGA | -0.0275
70 | AAACCAGC | -0.141
71 | GGGAGGAA | -0.11
72 | TAGCGGCA | -0.168
73 | ACTGTGAT | -0.0738
74 | CTCTATAA | 0.0464
75 | ATAAGCAC | 0.0519

Row | Sequence | PBM E-score
76 | TACTGACA | 0.117
77 | CATATAGG | 0.0848
78 | ACCGGCGA | -0.293
79 | CTGGGTGC | -0.113
80 | ACATCATC | 0.0456
81 | GGCCAATA | -0.0675
82 | AAACTATC | -0.0399
83 | GAAGATGA | -0.127
84 | ACCGTACA | 0.0453
85 | AACGACGA | -0.024
86 | GAGAGCTA | 0.0726
87 | CTGACTAC | 0.0479
88 | ACTAAACG | 0.083
89 | GTACGCCA | -0.213
90 | CGGTCTTC | -0.225
91 | GTGATCGA | 0.11
92 | TCCGGCGA | -0.153
93 | GACCTCCA | -0.149
94 | CCGGACAA | 0.022
95 | AACGCGGC | 0.0553
96 | GGAGTATA | -0.0923
97 | ATTGGCCA | -0.218
98 | TGGTGCAA | -0.049
99 | GTCCCTTA | -0.0953
100 | CCCATGAG | -0.314

Row | Sequence | PBM E-score
101 | ATGAATGA | -0.0809
102 | GGAAAGCC | -0.0378
103 | CCTAAATA | 0.149
104 | AGCACCTC | -0.0429
105 | ACCCCAAA | -0.215
106 | GGGGCCCA | -0.348
107 | CAAATCAG | -0.048
108 | TACGACGA | -0.0839
109 | GGCTCATA | -0.154
110 | CTGATAGC | -0.288
111 | CATTCCGA | 0.0255
112 | AAACAAAC | 0.0919
113 | AAGATCTG | 0.027
114 | CTCCCAAA | -0.097
115 | AAAATGGT | 0.123
116 | CGCATCAA | -0.122
117 | ATATTTCA | 0.0496
118 | AACAAGGG | 0.183
119 | ATTGACCC | -0.117
120 | ACGGCGCT | -0.105
121 | ACTTAAGG | 0.157
122 | ATAGGTGG | 0.0389
123 | ACTCAACG | 0.0348
124 | CCTGCAGC | 0.0434
125 | CCGTTACA | 0.236

Row | Sequence | PBM E-score
126 | GCCGCATA | -0.215
127 | TATCCATA | -0.00087
128 | ACTTTTGG | -0.00521
129 | AAACCGTG | 0.0679
130 | TGCCAACA | 0.137
131 | TATCGGGA | 0.0521
132 | AAATAGAT | 0.115
133 | AGTTAGTG | -0.00141
134 | CACGTCCC | -0.0972
135 | AGGTTGAA | -0.0784
136 | AAGAGCTG | -0.2
137 | AAATACCG | -0.0476
138 | ATGTCCTA | -0.0455
139 | ACATCCCT | 0.148
140 | TGTAGGAA | 0.406
141 | CCTGTTTC | 0.188
142 | CCGAAATA | -0.0276
143 | ATTGAAAG | -0.023
144 | AGCAGTCA | 0.0249
145 | AGGCCCAA | 0.0324
146 | TTATAGAA | 0.153
147 | CGCCACAG | -0.0196
148 | GCGAAACA | -0.0302
149 | ACCATTGC | -0.0229
150 | CGAGTTAC | 0.123

Row | Sequence | PBM E-score
151 | GCCGGTCA | -0.221
152 | GGTGTTAA | 0.28
153 | ATCATGCA | 0.0669
154 | AGAGGTTC | 0.0145
155 | CTCAATTC | -0.0836
156 | CTCACGAG | -0.266
157 | ACGATCGT | 0.179
158 | AGAACCAC | -0.122
159 | GTGTGTAA | 0.394
160 | AAGGCCAT | -0.0727
161 | CTGCGCAC | -0.104
162 | CCTCTTGA | -0.0841
163 | GGCCTGTA | 0.148
164 | GTGGGGAA | 0.0416
165 | ACTACATC | 0.173
166 | CTCGTCAC | -0.00506
167 | TATCAAAA | 0.0905
168 | GATCACAA | -0.122
169 | ATATACAA | 0.264
170 | GCCCGAGA | -0.131
171 | CCAAGCAC | -0.0442
172 | GAAACGGC | -0.0229
